In the supplement of paper PMC8728848:
The list shows a part of the results.

What was measured:
Experiment in all cases: glycan array binding signal (z-score within array); higher = stronger binding
Details in all cases: glycan notation: IUPAC condensed, linker removed
[1] = target: Neu5Ac(a2-3)Gal(b1-4)[Fuc(a1-3)]GlcNAc(b1-3)GalNAc
How it was run: (§1)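 Glycan array binding is given as a within-array Z-score, which can be read as non-binding when negative. The arrays, 3228 of them, came from the Consortium for Functional Glycomics database and were retained only where the protein sequence was available. Z-scores were averaged across arrays of the same protein sequence at different concentrations or buffers and across linkers.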

[2] = target: Neu5Ac(a2-3)Gal(b1-4)[Fuc(a1-3)]GlcNAc(b1-6)[Gal(b1-3)]GalNAc
How it was run: as §1

[3] = target: Neu5Ac(a2-3)Gal(b1-4)[Fuc(a1-3)]GlcNAc(b1-6)[Neu5Ac(a2-3)Gal(b1-3)]GalNAc
How it was run: as §1

[4] = target: Neu5Ac(a2-3)Gal(b1-4)[Fuc(a1-3)]GlcNAc6S
How it was run: as §1

[5] = target: Neu5Ac(a2-3)Gal6S(b1-4)GlcNAc
How it was run: as §1

[6] = target: Neu5Ac(a2-3)Gal6S(b1-4)[Fuc(a1-3)]GlcNAc
How it was run: as §1

[7] = target: Neu5Ac(a2-3)GalNAc
How it was run: as §1

[8] = target: Neu5Ac(a2-3)GalNAc(b1-4)GlcNAc
How it was run: as §1

[9] = target: Neu5Ac(a2-3)[GalNAc(b1-4)]Gal(b1-4)Glc
How it was run: as §1

[10] = target: Neu5Ac(a2-3)[GalNAc(b1-4)]Gal(b1-4)GlcNAc
How it was run: as §1

[11] = target: Neu5Ac(a2-3)[GalNAc(b1-4)]Gal(b1-4)GlcNAc(b1-3)GalNAc
How it was run: as §1

[12] = target: Neu5Ac(a2-3)[Neu5Ac(a2-6)]GalNAc
How it was run: as §1

[13] = target: Neu5Ac(a2-6)Gal
How it was run: as §1

[14] = target: Neu5Ac(a2-6)Gal(b1-3)GlcNAc(b1-3)[Gal(b1-4)GlcNAc(b1-6)]Gal(b1-4)Glc
How it was run: as §1

[15] = target: Neu5Ac(a2-6)Gal(b1-4)Glc
How it was run: as §1

[16] = target: Neu5Ac(a2-6)Gal(b1-4)GlcNAc
How it was run: as §1

[17] = target: Neu5Ac(a2-6)Gal(b1-4)GlcNAc(b1-2)Man(a1-3)Man(b1-4)GlcNAc(b1-4)GlcNAc
How it was run: as §1

[18] = target: Neu5Ac(a2-6)Gal(b1-4)GlcNAc(b1-2)Man(a1-3)[Gal(b1-4)GlcNAc(b1-2)Man(a1-6)]Man(b1-4)GlcNAc(b1-4)GlcNAc
How it was run: as §1

[19] = target: Neu5Ac(a2-6)Gal(b1-4)GlcNAc(b1-2)Man(a1-3)[GlcNAc(b1-2)Man(a1-6)]Man(b1-4)GlcNAc(b1-4)GlcNAc
How it was run: as §1

[20] = target: Neu5Ac(a2-6)Gal(b1-4)GlcNAc(b1-2)Man(a1-3)[GlcNAc(b1-2)Man(b1-4)GlcNAc(b1-2)Man(a1-6)]Man(b1-4)GlcNAc(b1-4)GlcNAc
How it was run: as §1

[21] = target: Neu5Ac(a2-6)Gal(b1-4)GlcNAc(b1-2)Man(a1-3)[Man(a1-6)]Man(b1-4)GlcNAc(b1-4)GlcNAc
How it was run: as §1

[22] = target: Neu5Ac(a2-6)Gal(b1-4)GlcNAc(b1-2)Man(a1-3)[Neu5Ac(a2-6)Gal(b1-4)GlcNAc(b1-2)Man(a1-6)]Man(b1-4)GlcNAc(b1-4)GlcNAc
How it was run: as §1

[23] = target: Neu5Ac(a2-6)Gal(b1-4)GlcNAc(b1-2)Man(a1-6)Man(b1-4)GlcNAc(b1-4)GlcNAc
How it was run: as §1

[24] = target: Neu5Ac(a2-6)Gal(b1-4)GlcNAc(b1-2)Man(a1-6)[Gal(b1-4)GlcNAc(b1-2)Man(a1-3)]Man(b1-4)GlcNAc(b1-4)GlcNAc
How it was run: as §1

[25] = target: Neu5Ac(a2-6)Gal(b1-4)GlcNAc(b1-2)Man(a1-6)[GlcNAc(b1-2)Man(a1-3)]Man(b1-4)GlcNAc(b1-4)GlcNAc
How it was run: as §1

[26] = target: Neu5Ac(a2-6)Gal(b1-4)GlcNAc(b1-2)Man(a1-6)[Man(a1-3)]Man(b1-4)GlcNAc(b1-4)GlcNAc
How it was run: as §1

[27] = target: Neu5Ac(a2-6)Gal(b1-4)GlcNAc(b1-3)Gal(b1-3)GlcNAc
How it was run: as §1

[28] = target: Neu5Ac(a2-6)Gal(b1-4)GlcNAc(b1-3)Gal(b1-4)GlcNAc
How it was run: as §1

[29] = target: Neu5Ac(a2-6)Gal(b1-4)GlcNAc(b1-3)Gal(b1-4)GlcNAc(b1-3)Gal(b1-4)GlcNAc
How it was run: as §1

[30] = target: Neu5Ac(a2-6)Gal(b1-4)GlcNAc(b1-3)Gal(b1-4)[Fuc(a1-3)]GlcNAc(b1-3)Gal(b1-4)[Fuc(a1-3)]GlcNAc
How it was run: as §1

[31] = target: Neu5Ac(a2-6)Gal(b1-4)GlcNAc(b1-3)GalNAc
How it was run: as §1

[32] = target: Neu5Ac(a2-6)Gal(b1-4)GlcNAc6S
How it was run: as §1

[33] = target: Neu5Ac(a2-6)GalNAc
How it was run: as §1

[34] = target: Neu5Ac(a2-6)GalNAc(b1-4)GlcNAc
How it was run: as §1

[35] = target: Neu5Ac(a2-6)GlcNAc(b1-4)GlcNAc
How it was run: as §1

[36] = target: Neu5Ac(a2-6)GlcNAc(b1-4)GlcNAc(b1-4)GlcNAc
How it was run: as §1

[37] = target: Neu5Ac(a2-8)Neu5Ac
How it was run: as §1

[38] = target: Neu5Ac(a2-8)Neu5Ac(a2-3)Gal(b1-4)Glc
How it was run: as §1

[39] = target: Neu5Ac(a2-8)Neu5Ac(a2-3)[Gal(b1-3)GalNAc(b1-4)]Gal(b1-4)Glc
How it was run: as §1

[40] = target: Neu5Ac(a2-8)Neu5Ac(a2-3)[GalNAc(b1-4)]Gal(b1-4)Glc
How it was run: as §1

[41] = target: Neu5Ac(a2-8)Neu5Ac(a2-8)Neu5Ac
How it was run: as §1

[42] = target: Neu5Ac(a2-8)Neu5Ac(a2-8)Neu5Ac(a2-3)Gal(b1-4)Glc
How it was run: as §1

[43] = target: Neu5Ac(a2-8)Neu5Ac(a2-8)Neu5Ac(a2-3)[GalNAc(b1-4)]Gal(b1-4)Glc
How it was run: as §1

[44] = target: Neu5Ac(a2-8)Neu5Ac(a2-8)Neu5Ac(a2-8)Neu5Ac(a2-3)[GalNAc(b1-4)]Gal(b1-4)Glc
How it was run: as §1

[45] = target: Neu5Ac(b2-6)Gal(b1-4)GlcNAc
How it was run: as §1

[46] = target: Neu5Ac(b2-6)GalNAc
How it was run: as §1

[47] = target: Neu5Ac9Ac(a2-3)Gal(b1-3)GlcNAc
How it was run: as §1

[48] = target: Neu5Ac9Ac(a2-3)Gal(b1-4)GlcNAc
How it was run: as §1

[49] = target: Neu5Ac9Ac(a2-6)Gal(b1-4)GlcNAc
How it was run: as §1

[50] = target: Neu5Gc(a2-3)Gal(b1-3)GlcNAc
How it was run: as §1

[51] = target: Neu5Gc(a2-3)Gal(b1-3)[Fuc(a1-4)]GlcNAc
How it was run: as §1

[52] = target: Neu5Gc(a2-3)Gal(b1-4)Glc
How it was run: as §1

[53] = target: Neu5Gc(a2-3)Gal(b1-4)GlcNAc
How it was run: as §1

[54] = target: Neu5Gc(a2-3)Gal(b1-4)[Fuc(a1-3)]GlcNAc
How it was run: as §1

[55] = target: Neu5Gc(a2-6)Gal(b1-4)GlcNAc
How it was run: as §1

[56] = target: Neu5Gc(a2-6)GalNAc
How it was run: as §1

[57] = target: Neu5Gc(b2-6)Gal(b1-4)GlcNAc
How it was run: as §1

B1: CwpV (Clostridium difficile), B6EFG6 (protein)
chain: MKIPKKIAAMLTVTMIAGSSTAGIASAQTVATNLTGQERYETAVKISQDGWKNADEVVIVNDSSIADALSATPFAKAKNAPILLTSKDKLNDKTKAEIQRLKAKKVYLIGGTSVLSTNIEKEIKDLKISFERISGAERYQTSLELAKKLDAISDVKKIAVVNGEKGLADAVSVGAPAAQNNMPVILADSKNGTAVADKFIKDAGITQSYVVGGESSISEAVKNKLPNSTRLGGTDRNDTNAKVIKEFYKKTDLKNAYVTKDGMNKQDQLIDALAVGVLGAKNQSPVVLVGKNLSASQKSLVNSKSFDKITKVGGNGNETAFNEMKSLQEVKTVEAKTISELKSAIDKATANDVINFKPTSEVKEAFTIQTDKAVTVNLNGTYTKTVTINMPNGDVNNYAKVDDVVIDDVKDGTFVNYGKITNLKVNDKNGAKIENNSKGEIGSLTVASGASQVKVTNGGKITTVTNNSKGTTIDNKGTISSVKGDNSPTISGNSPSSNSSGGSSSSGGSSGGSSGGSSSSKVGQIKFSATDKQIKMASGDKTVDPSDNTYILKLTNGTVKDGDVKANVKVAGLPSGLDYTAVGNRSANTITITVSGTTSQSIQNDLNNVSVLVKAGAVSGTGATDSIANTTFEIKKYVAAPAVGQLTFDATDKQIKMASGDKTVDPSDDTYVLTLTKGTAKDGDIKANVEVTGLPSGLDYTAEGDSSANTITIPVSGTASPAVQTDLDNVSVLVKAGAVSETTATDSAANATFEVKKYVAPAVGQLTFDATDKQIKMASGDKTVDPSDDTYVLTLTKGTAKDGDIKANVEVTGLPSGLDYTAEGDSSANTITITVSGTASQAVQTDLDNVSVLVKAGAVSETTATDSAANATFEVKKYVAPAIGQLTFDATDKQIKMASGDKTVDPSDDTYVLTLTKGTAKDGDIKANVEVTGLPSGLDYTAEGDSSANTITITVSGTASQAVQTDLDNVSVLVKAGAVSETTATDSAANATFEVKKHASDPISTIGKISSGLSSLFNILK
[1]
  glycan array binding signal (z-score): 0.417
[2]
  glycan array binding signal (z-score): 0.737
[3]
  glycan array binding signal (z-score): 0.286
[4]
  glycan array binding signal (z-score): -0.323
[5]
  glycan array binding signal (z-score): -0.321
[6]
  glycan array binding signal (z-score): -0.342
[7]
  glycan array binding signal (z-score): -0.322
[8]
  glycan array binding signal (z-score): 0.576
[9]
  glycan array binding signal (z-score): -0.277
[10]
  glycan array binding signal (z-score): -0.253
[11]
  glycan array binding signal (z-score): -0.232
[12]
  glycan array binding signal (z-score): -0.335
[13]
  glycan array binding signal (z-score): -0.318
[14]
  glycan array binding signal (z-score): -0.21
[15]
  glycan array binding signal (z-score): -0.296
[16]
  glycan array binding signal (z-score): -0.341
[17]
  glycan array binding signal (z-score): -0.274
[18]
  glycan array binding signal (z-score): -0.163
[19]
  glycan array binding signal (z-score): -0.249
[20]
  glycan array binding signal (z-score): -0.314
[21]
  glycan array binding signal (z-score): -0.135
[22]
  glycan array binding signal (z-score): -0.216
[23]
  glycan array binding signal (z-score): -0.299
[24]
  glycan array binding signal (z-score): -0.34
[25]
  glycan array binding signal (z-score): -0.308
[26]
  glycan array binding signal (z-score): -0.302
[27]
  glycan array binding signal (z-score): -0.127
[28]
  glycan array binding signal (z-score): 0.301
[29]
  glycan array binding signal (z-score): 0.385
[30]
  glycan array binding signal (z-score): 0.221
[31]
  glycan array binding signal (z-score): 0.056
[32]
  glycan array binding signal (z-score): -0.155
[33]
  glycan array binding signal (z-score): -0.276
[34]
  glycan array binding signal (z-score): -0.063
[35]
  glycan array binding signal (z-score): -0.279
[36]
  glycan array binding signal (z-score): -0.284
[37]
  glycan array binding signal (z-score): -0.32
[38]
  glycan array binding signal (z-score): -0.287
[39]
  glycan array binding signal (z-score): -0.239
[40]
  glycan array binding signal (z-score): -0.287
[41]
  glycan array binding signal (z-score): -0.32
[42]
  glycan array binding signal (z-score): -0.222
[43]
  glycan array binding signal (z-score): -0.259
[44]
  glycan array binding signal (z-score): -0.269
[45]
  glycan array binding signal (z-score): -0.344
[46]
  glycan array binding signal (z-score): -0.286
[47]
  glycan array binding signal (z-score): -0.321
[48]
  glycan array binding signal (z-score): -0.03
[49]
  glycan array binding signal (z-score): -0.322
[50]
  glycan array binding signal (z-score): -0.293
[51]
  glycan array binding signal (z-score): -0.33
[52]
  glycan array binding signal (z-score): -0.229
[53]
  glycan array binding signal (z-score): -0.046
[54]
  glycan array binding signal (z-score): -0.263
[55]
  glycan array binding signal (z-score): -0.292
[56]
  glycan array binding signal (z-score): -0.29
[57]
  glycan array binding signal (z-score): -0.322
